# In PubChem BioAssay AID686978 (National Center for Advancing Translational Sciences (NCATS), 2013):
# The whole screen tested about 420,000 compounds, of which about 64,000 (15%) were called active. Inconclusive means that the source gave no clear call. Such entries were picked first, then a sample of the others. The call rests on the fitted dose curve; in most records, active means well fitted inhibition curve with a large enough effect; inconclusive means small, poorly fitted or top-dose-only effect; inactive means flat fitted curve, though single readings scatter. Potencies of inconclusive entries are left out as doubtful fits.
# Test: qHTS for Inhibitors of human tyrosyl-DNA phosphodiesterase 1 (TDP1): qHTS in cells in absence of CPT; further: nearly all actives have a fitted effect of over 55% in size
# Conditions: DT40 Tdp1-/- hTDP1 cells, no CPT, ATP luminescence, 48 h; activity change, negative = growth inhibition: at 46.2 µM (top of the series) unless noted
# How it was run: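 A cellular qHTS used chicken DT40 cells lacking endogenous Tdp1 but carrying stably transfected human TDP1. Compounds were applied without camptothecin, and cell growth kinetics were judged by ATP-dependent luminescence after ≥48 hr.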
# On the % scale 0 is the no-effect control and ±100 the full control effect; potency means the concentration at half of the fitted maximal effect; tags describe the fitted curve by direction and shape.
Compound,Potency,"activity change, negative = growth inhibition"
COc1ccc(OC)c(-c2oc3ccccc3c(=O)c2O)c1,"inconclusive [inhibitor, single point]",
Cc1ccc(C(=O)Nc2ccc(F)cc2)cc1S(=O)(=O)N1CCCCCC1,"inconclusive [inhibitor, single point]",
O=C1CNC(=S)N1C(CO)c1ccccc1 (configuration not stated),,inactive: -1.85%
CC(=O)Nc1ccc(Nc2ncnc3c2cnn3-c2ccccc2)cc1,"inconclusive [inhibitor, single point]",
COc1ccc(NC(=O)c2cc(S(=O)(=O)N3CCOCC3)cn2C)cc1Cl,inactive,
Cc1ccc(CN(Cc2cc3cccc(C)c3[nH]c2=O)C(=S)NCCCN(C)C)cc1,"inconclusive [inhibitor, single point]",
Cc1cccc(C)c1NC(=O)CS(=O)CC(=O)Nc1ccc(N2CCOCC2)cc1 (configuration not stated),,inactive: 6.35%
COc1ccc(N2CCN(Cc3cc(=O)c(OCC(=O)NC4CCCC4)co3)CC2)cc1,,inactive: -16.8%
CCOC(=O)N1CCC(Nc2c(N3CCN(c4cccc(C(F)(F)F)c4)CC3)c(=O)c2=O)CC1,"inconclusive [inhibitor, single point]",
CCCOc1ccc(-c2nc(C#N)c(NCC3CCCO3)o2)cc1 (configuration not stated),"inconclusive [inhibitor, single point]",
Cn1nc(-c2ccc(OCC(=O)Nc3cccc(C(F)(F)F)c3)cc2)c2ccccc2c1=O,"inconclusive [inhibitor, single point]",
Cc1cccc(C(O)c2ncc(-c3ccc(F)cc3)[nH]2)c1C (configuration not stated),"inconclusive [inhibitor, partial curve, poor fit]",
O=C1CS(=O)(=O)C2(C(=O)Nc3ccccc32)N1c1cccc(Cl)c1 (configuration not stated),,inactive: -22.2%
CC(C)(C)c1cc(NCc2ccccn2)n2ncc(-c3ccccc3)c2n1,active: 4.61 µM,
Nc1cccc[n+]1C(c1ccnc2ccccc12)[n+]1ccccc1N,active: 1 µM,
Cc1cc2ccccc2nc1SCC(=O)NC1CCCCC1,,inactive: -0.948%
Cc1[nH][nH]c(=O)c1C(c1ccc(O)c(Br)c1)c1c(C)[nH][nH]c1=O,"inconclusive [inhibitor, partial curve]",
CCCC(=O)Nc1nc(-c2ccc(OC)cc2)cs1,"inconclusive [inhibitor, single point]",
O=C(CSCc1ccco1)Nc1cc(C(F)(F)F)ccc1N1CCOCC1,"inconclusive [inhibitor, single point]",
O=CN1CC(=O)N(c2ccccc2)c2c([nH]c3ccccc23)C1,"inconclusive [inhibitor, partial curve, poor fit]",
O=S(=O)(Nc1cccc2c1ccc1cccn12)c1cccs1,,inactive: -15.2%
CC1=C(C(=O)N(C(C)C)C(C)C)CC(CC(=O)NC(c2ccccc2)c2ccccc2)C(=O)N1CCC1=CCCCC1 (configuration not stated),active: 18.4 µM,
Cc1nc(C)c(-c2ccc(SCC(=O)Nc3cccc(F)c3)nn2)s1,active: 23.1 µM,
NS(=O)(=O)c1ccc(CNC(=O)c2ccc(NS(=O)(=O)c3ccc4[nH]c(=O)[nH]c4c3)cc2)cc1,,inactive: -1.66%

Compound,Potency,"activity change, negative = growth inhibition"
O=C(CN1CCC(C(=O)c2ccc3c(c2)OCCO3)CC1)NCc1ccccc1,"inconclusive [inhibitor, single point]",
CCn1c(=O)n(CC)c2cc([N+](=O)[O-])ccc21,,inactive: 1.52%
CCCOc1ccc(NC(=O)CCC(=O)NC(C)c2ccccc2)cc1 (configuration not stated),,inactive: 10.2%
Cc1ccccc1OCC(O)Cn1c(SC(C)C)nc2c1c(=O)[nH]c(=O)n2C (configuration not stated),"inconclusive [inhibitor, single point]",
c1ccc(-c2nc3ccccn3c2NCc2ccc3c(c2)OCO3)cc1,,inactive: -29.5%
COc1ccc(S(=O)(=O)Nc2cccc3c2O[C@H](CN(C)CC2CCCCC2)[C@@H](C)CN([C@H](C)CO)C3=O)cc1,,inactive: 2%
COc1ccc(C(C)=O)cc1CSc1nnnn1-c1ccc(O)cc1,"inconclusive [inhibitor, single point]",
COc1ccc(C2CC(c3ccccc3C(F)(F)F)=NN2c2ccc(S(N)(=O)=O)cc2)cc1 (configuration not stated),"inconclusive [inhibitor, single point]",
COc1ccccc1C(=O)Nc1cccc(SC)c1,,inactive: -9.67%
COc1cccc(CNc2nc3nc4c(c(=O)n3[nH]2)CCC4)c1,,inactive: -4.84%
CN(C)c1ccc(Nc2cc(Cl)ncn2)cc1,,inactive: -12.8%
N#Cc1ccccc1NC(=O)COC(=O)CCc1ccccc1,,inactive: -6.73%
C=CCCC(=O)N1CCC(n2nccc2NC(=O)c2ccc(OC)cc2)CC1,,inactive: 0.971%
CCOc1ccc(NC(=O)CCCc2nc(-c3cccc(OC)c3)no2)cc1,active: 20.6 µM,
CCN(C(=O)COC(=O)c1cc(S(=O)(=O)N2CCOCC2)ccc1F)C1CCS(=O)(=O)C1 (configuration not stated),,inactive: 6.46%
COc1ccc(-n2cc(-c3ccccc3)c3c(NCCOCCO)ncnc32)cc1,"inconclusive [inhibitor, single point]",
O=C(CC(Nc1ccccc1)c1ccc(F)cc1)c1ccccc1 (configuration not stated),"inconclusive [inhibitor, single point]",
Cc1ccc(CNC(=O)c2sc3nc(C)cc(C)c3c2-n2cccc2)cc1,"inconclusive [inhibitor, partial curve]",
COc1ccc(-c2csc(NC(=O)CSC(C)C(=O)Nc3cc(C)on3)n2)cc1OC (configuration not stated),active: 10.3 µM,
O=S(=O)(c1cccs1)N1CN(C2CCCCC2)c2nc3ccccc3nc21,"inconclusive [inhibitor, single point]",
O=C(N1CCOCC1)N1CCC(c2nc(-c3ccc(S(=O)(=O)N4CCOCC4)cc3)no2)CC1,"inconclusive [inhibitor, single point]",
COc1ccccc1NS(=O)(=O)c1ccc2oc(=S)[nH]c2c1,"inconclusive [inhibitor, full curve]",
CC(C(=O)N1CCCCCC1)N(c1ccc(Cl)cc1)S(C)(=O)=O (configuration not stated),"inconclusive [inhibitor, single point]",
CC1CC(C)CN(S(=O)(=O)c2cccc3nonc23)C1 (configuration not stated),"inconclusive [inhibitor, partial curve]",

Compound,Potency,"activity change, negative = growth inhibition"
COc1ccccc1CNS(=O)(=O)c1ccc(C)cc1,"inconclusive [inhibitor, single point]",
COc1ccc(N2CCN(C(=O)COc3ccc4c(C)cc(=O)oc4c3C)CC2)cc1,,inactive: 1.89%
Cc1ccc(CN2CCC[C@]3(N[C@H](c4ccc(C)cc4)[C@@H]4C(=O)N(Cc5ccccc5)C(=O)[C@@H]43)C2=O)cc1,"inconclusive [inhibitor, single point]",
O=C(/C=C/c1ccc(-c2ccc(F)cc2)o1)N1CCCC1,active: 20.6 µM,
CCCCC[C@@H](C)N1C[C@H](COCc2ccccc2)Oc2cc(N3CCC[C@@H]3CO)ccc2S1(=O)=O,active: 18.4 µM,
COc1ccc(C(=O)Nc2ccccc2N2CCOCC2)cc1Br,"inconclusive [inhibitor, partial curve]",
O=C(CN(Cc1ccc(Br)cc1)S(=O)(=O)c1ccccc1)NCc1ccccn1,"inconclusive [inhibitor, single point]",
Cn1c(=O)c2[nH]c(SCCN3CCOCC3)nc2n(C)c1=S,,inactive: -10.1%
O=C(CSc1n[nH]c(-c2ccccc2F)n1)NCC(=O)Nc1ccc(F)c(F)c1F,,inactive: -1.13%
O=c1[nH]c(=O)n(Cc2ccco2)c2c1C(C(F)(F)F)(C(F)(F)F)N=C(CCc1ccccc1)N2,"inconclusive [inhibitor, single point]",
CCN(CC)CCNC(=O)C1CCN(c2cc(C)nc3c(-c4ccc(Cl)cc4)c(C)nn23)CC1,active: 4.11 µM,
COc1ccc(NC(=O)c2ccccn2)cc1,"inconclusive [inhibitor, partial curve]",
COc1ccc(-c2cc(-c3cc(F)ccc3O)[nH]n2)cc1OC,"inconclusive [inhibitor, single point]",
Cc1cccc(C)c1NC(=O)CN(C)C(=O)CN1C(=O)NC2(CCCC2)C1=O,,inactive: 1.47%
COc1ccc(-c2cn3nc4c(nc3n2)CCCC4)cc1,"inconclusive [inhibitor, single point]",
O=Cc1ccc(OCc2cccc(C(F)(F)F)c2)cc1O,"inconclusive [inhibitor, single point]",
Cc1nc(NCC2CCCO2)c2oc3ccccc3c2n1 (configuration not stated),,inactive: -29.5%
C[C@@H]1CN([C@H](C)CO)C(=O)CCCn2nncc2CO[C@H]1CN(C)C(=O)Nc1ccc(N2CCN(C)CC2)cc1,,inactive: 9.8%
Cc1ccc(F)cc1C(=O)N1CCCC(c2cc(C(=O)NCc3ccccc3)no2)C1 (configuration not stated),"inconclusive [inhibitor, single point]",
O=C(CSc1nc2ccccc2c(=O)n1NC(=O)Cc1ccccc1)NCc1ccco1,,inactive: 0.573%
CN(C)S(=O)(=O)c1ccc(C(=O)Nc2ccccc2SCCC#N)cc1,"inconclusive [inhibitor, single point]",
CCOC(=O)C1=C(COC(=O)c2cc([N+](=O)[O-])ccc2Cl)NC(=O)NC1C (configuration not stated),"inconclusive [inhibitor, single point]",
Cc1ccccc1S(=O)(=O)Cc1ccc(C(=O)N2CCN(c3ccc(F)cc3)CC2)o1,"inconclusive [inhibitor, single point]",
O=C(NCCc1nc2ccccc2n1Cc1ccccc1)c1ccco1,"inconclusive [inhibitor, single point]",
